Source: paper PMC6919601, “Identification of Plasmodium dipeptidyl aminopeptidase allosteric inhibitors by high throughput screening” (PLoS ONE, 2019)
The whole screen tested about 110,000 compounds, of which about 230 (0.21%) showed an effect of 50% or more. Some of the results follow.

Molecular target: DPAP1 (Plasmodium falciparum, UniProt Q8IIJ9)
Assay: primary screen, percent inhibition; read by cleavage of a fluorogenic dipeptide substrate; higher = more effect of the substance
Parameters: species or system P. falciparum D10 trophozoite lysates; single well
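Note: 30 min substrate incubation versus DMSO and 10 µM JCP410 controls.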

Sequence of DPAP1 (Q8IIJ9 whole entry, looked up): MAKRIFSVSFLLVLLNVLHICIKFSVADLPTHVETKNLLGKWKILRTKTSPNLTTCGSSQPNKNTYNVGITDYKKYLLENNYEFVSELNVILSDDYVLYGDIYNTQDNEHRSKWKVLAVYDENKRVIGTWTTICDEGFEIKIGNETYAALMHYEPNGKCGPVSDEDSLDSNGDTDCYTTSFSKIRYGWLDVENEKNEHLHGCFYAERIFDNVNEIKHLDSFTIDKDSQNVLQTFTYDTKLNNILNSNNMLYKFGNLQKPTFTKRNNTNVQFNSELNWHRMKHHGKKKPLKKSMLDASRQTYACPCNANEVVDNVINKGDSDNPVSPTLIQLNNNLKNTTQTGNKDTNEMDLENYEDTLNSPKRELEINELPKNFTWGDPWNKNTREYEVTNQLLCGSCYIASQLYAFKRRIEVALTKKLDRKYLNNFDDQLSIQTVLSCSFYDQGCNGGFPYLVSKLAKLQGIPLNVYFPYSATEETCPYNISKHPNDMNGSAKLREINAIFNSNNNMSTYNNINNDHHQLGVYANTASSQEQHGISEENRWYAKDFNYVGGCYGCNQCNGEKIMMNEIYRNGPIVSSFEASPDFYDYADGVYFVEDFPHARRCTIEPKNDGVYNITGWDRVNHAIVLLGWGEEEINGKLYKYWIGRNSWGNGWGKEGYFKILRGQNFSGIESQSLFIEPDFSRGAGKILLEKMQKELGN

| SMILES | % Inhibition @ 10 uM |
| --- | --- |
| O=C(NCc1ccccc1Cl)c1ccc(Cn2cc(Cl)cn2)cc1 | 2.08% |
| CCCCNc1ncnc2c1cnn2-c1ccc(C)cc1C | 0.759% |
| CCCCN(C)c1sc(S(C)(=O)=O)nc1S(=O)(=O)c1ccc(C)cc1 | -7.8% |
| O=C(Cc1ccccc1)n1nc(-c2cccnc2)nc1NCc1cccs1 | 5.35% |
| COc1ccc(C(=O)CCC(=O)O)c(C)c1 | -1.33% |
| O=c1c2nnn(-c3ccc(F)cc3)c2ncn1Cc1ccc(F)cc1 | -0.431% |
| Cc1ccc(-c2ccc(C=C3C(=O)N(C)C(=O)N(C)C3=O)o2)c(Br)c1 | 5.23% |
| O=C(c1ccc2c(c1)sc1nc(-c3ccccc3)cn12)N1CCCCC1 | 35.6% |
| COC(=O)c1c(NC(=O)c2ccc(C)cc2)sc(C)c1C | -1.1% |
| COc1ccc(-c2nsc(SCC(=O)Nc3nnc(C)s3)n2)cc1 | -0.659% |
| O=S(=O)(NCCc1nnc2ccc(SCc3cccc4ccccc34)nn12)c1ccccc1 | 0.581% |
| O=C(CNCc1cccnc1)Nc1sc2c(c1C(=O)Nc1ccc(Br)cc1)CCCC2 | -6.07% |
| O=C1ON=C(c2ccccc2)/C1=C\c1ccc2c(c1)OCO2 | -2.14% |
| CC(Oc1cccc(Cl)c1)C(=O)N(Cc1nc(-c2ccccc2)no1)C(C)C (stereo not drawn) | -3.68% |
| O=C1c2ccccc2C(=O)N1CCN1CCOCC1 | -3.06% |
| Cc1nn(C(C)C(=O)NCCCN2CCCC2=O)c(=O)c2nn(-c3ccccc3)c(C)c12 (stereo not drawn) | -2.31% |
| COc1cccc2c1OC1c3ccccc3OC2C1C (stereo not drawn) | -3.94% |
| CCN(C(=O)C1CCCCC1C(=O)O)c1ccccc1 (stereo not drawn) | -4.35% |
| CCc1nc2cccnc2n1-c1ccc(CC(=O)N2CCOCC2)cc1 | -2.74% |
| CC(C)C[C@H](NC(=O)c1ccc(N2CCCCC2)nc1)C(=O)NCC#N | 2.22% |
| CCOC(=O)C1=C(C)N=C2SCCN2C1c1ccc(Br)cc1 (stereo not drawn) | -1.15% |
| CCCCN1CCc2c1nc1ccc(Br)cc1c2N | 1.7% |
| CCNC(=O)C1CCN(c2nnc(N3CCCC3=O)s2)CC1 | -2.85% |
| CCOc1ccc(-c2cc(NC(=O)COCc3cc(-c4cccs4)on3)on2)cc1OCC | -4.96% |
| COc1ccc(NS(=O)(=O)c2cccc(C(=O)Nc3cccc(C(=O)O)c3)c2)cc1 | 10.6% |

| SMILES | % Inhibition @ 10 uM |
| --- | --- |
| CN(C)c1ccc(C2C(C#N)=C(N)OC3=C2C(=O)CC(c2ccccc2)C3)cc1 (stereo not drawn) | 1.57% |
| Cc1ccc(S(=O)(=O)N2CCC(C(=O)Nc3cccc(Cl)c3C)CC2)cc1 | 0.583% |
| O=C1c2ccccc2C2(O)NC(=S)NC12O (stereo not drawn) | -3.64% |
| CC(C)NCC(O)Cn1c2ccc(Cl)cc2c2cc(Cl)ccc21 (stereo not drawn) | -1.59% |
| Cc1cc2c(c(=O)n1CCc1ccccc1)C(c1cccnc1)C(C#N)=C(N)O2 (stereo not drawn) | 0.627% |
| CCOc1ccc(/C=C2/SC(Nc3ccccc3)=NC2=O)c(OCC)c1 | -4.82% |
| CCCOc1ccc(C(=O)Nc2cc(-c3ccc(C)cc3)no2)cc1 | -1.47% |
| COc1ccc(C2C3C(=O)N(c4ccc(OC)cc4)C(=O)C3ON2c2ccccc2)cc1 (stereo not drawn) | -4.6% |
| O=C(O)/C=C/C(=O)N1CCN(c2nc(-c3ccccc3)c3ccccc3n2)CC1 | -2.92% |
| O=C(CN1C(=O)c2cccc3cccc(c23)C1=O)N1CCN(c2ccc(F)cc2)CC1 | -3.18% |
| Cc1cc(C)nc(NS(=O)(=O)c2ccc(NC(=O)c3ccc(S(=O)(=O)N(C)C)cc3)cc2)n1 | -7.7% |
| COc1ccccc1C(=O)NCCCc1nc2ccccc2n1Cc1ccccc1F | -2.83% |
| CCOc1cccc(O)c2c(C)nc(C)c1-2 | -2.48% |
| CCOc1ccccc1C(=O)N(C)c1ccccc1 | -1.99% |
| CCc1c(C#N)c(S)nc(C)c1C(=O)Nc1ccccc1 | 55% |
| Cc1ccc(NC(=O)CN2C(=O)S/C(=C\c3ccccn3)C2=O)cc1 | -2.27% |
| CC(C(=O)NCc1ccccn1)n1cccc1C(=O)c1ccccc1 (stereo not drawn) | -0.522% |
| O=C1NN(C(=O)COc2ccc(Br)cc2)C(c2ccc(Br)cc2)=CS1 | -1.47% |
| COc1nc(Nc2ccccc2O)nc(OC)n1 | 2.58% |
| O=C(NC(=S)NCc1ccccc1)c1ccc([N+](=O)[O-])cc1 | -0.0369% |
| CC(C)(C)C1CCc2c(sc3nnn(CC(=O)N4CCCCCC4)c(=O)c23)C1 (stereo not drawn) | -2.71% |
| O=C(c1ccc(Br)cc1)N(Cc1ccccc1)Cc1ccccc1 | -3.13% |
| O=C1C2C3c4ccccc4C(c4ccccc43)C2C(=O)N1c1cc(Cl)ccn1 (stereo not drawn) | 5.39% |
| COc1ccccc1N1CCN(Cc2cc(OC)c(O)c(OC)c2)CC1 | -1.86% |
| COc1cccc2cc(-c3csnn3)c(=O)oc12 | 0.351% |

| SMILES | % Inhibition @ 10 uM |
| --- | --- |
| CCOC(=O)c1cc2c(=O)n3ccccc3nc2n(CC2CCCO2)/c1=N/C(=O)c1ccccc1 (stereo not drawn) | -2.9% |
| O=C1NC(=O)N(c2cccc(Cl)c2)C(=O)/C1=C\Nc1ccc(Br)cn1 | 0.673% |
| O=C(Nc1cccnc1)C1CC(c2ccc(F)cc2)=NO1 (stereo not drawn) | 1.62% |
| O=C(O)c1ccccc1-c1ccccc1C(=O)N1CCN(Cc2ccc3c(c2)OCO3)CC1 | -1.72% |
| COc1ccc(N2C(=O)CC(N3CCN(C4CCc5ccccc5C4)CC3)C2=O)cc1 (stereo not drawn) | -2.22% |
| CO/C(O)=C1/C(C)=NC2=C(C(=O)CCC2)C1c1ccc(N(C)C)cc1 (stereo not drawn) | -5.44% |
| COc1ccc(-c2cc(C3CC3)nc3sc(C(N)=O)c(N)c23)cc1 | 3.01% |
| c1csc(CNc2c3c(nc4nncn24)CCC3)c1 | 2.54% |
| CC(Nc1cccc(Cl)c1)N1C(=O)CCC1=O (stereo not drawn) | 2.23% |
| O=C(CCN1C(=O)c2cccc3cccc(c23)C1=O)Nc1nc(-c2ccccc2)cs1 | 2.38% |
| O=C(O)C1C2CCC(O2)C1C(=O)Nc1ccc2c(c1)CCC2 (stereo not drawn) | -4.6% |
| Cc1nn(-c2cccc3ccccc23)c(O)c1/C=N/c1ccc2[nH]c(O)nc2c1 | -0.759% |
| Cc1ccc(C)c(S(=O)(=O)NCc2ccc(C(=O)N3CCN(c4ccccc4)CC3)cc2)c1 | 9.29% |
| COc1ccc(C(c2c(O)n[nH]c2C)c2c(O)n[nH]c2C)cc1Br | -0.822% |
| Cc1cc(C)c(C(=O)c2ccc(C(=O)NC3CCCCC3)cc2)c(C)c1 | -6.78% |
| Cc1ccccc1NC(=O)c1cccc(NC(=O)c2ccccc2C(=O)O)c1 | -5.41% |
| Cc1cc(C)c(OCC(O)CNC(C)(C)C)c(C)c1 (stereo not drawn) | 7.34% |
| C=CCN1C(=O)/C(=C/c2ccc(OC)c(OC)c2)C(=O)NC1=S | -4.87% |
| COc1ccc(C2C3=C(O)CC(C)(C)CC3=NC(C)=C2C(=O)Nc2ccc(Br)cn2)cc1 (stereo not drawn) | 1.08% |
| C=CCOc1ccccc1CN1CCN(c2ccc(OC)cc2)CC1 | 0.0792% |
| COc1ccc(-c2noc(CNC(=O)c3ccc4c(c3)OCO4)n2)cc1 | -6.72% |
| CNC(=O)N1C(=O)C(=O)c2ccccc21 | -2.63% |
| Cc1cccc2sc(NC(=O)CCS(=O)(=O)c3ccc(Br)s3)nc12 | 3.27% |
| CCCCN(C)C(=O)CCCn1nc(C)n2c(cc3sccc32)c1=O | 4.95% |
| CCOc1ccc(C(=O)Nc2ccccn2)cc1 | -7.3% |

| SMILES | % Inhibition @ 10 uM |
| --- | --- |
| N#CCNC(=O)[C@H](Cc1cc(I)c(O)c(I)c1)NC(=O)c1ccc(C(F)(F)F)cc1 | -3.04% |
| CCc1nnc(NC(=O)C2c3ccccc3C(=O)N(C)C2c2cccs2)s1 (stereo not drawn) | -6.69% |
| COc1ccc(CCNC(=O)CSc2nc(NCC3CCCO3)c3ccccc3n2)cc1OC (stereo not drawn) | -1.5% |
| CCCCCNC(=O)c1ccc2c(c1)ncn2-c1cccc(F)c1 | -0.256% |
| OCCNc1nc2ccccc2n1Cc1ccccc1 | 2.44% |
| CCOC(=O)c1ccccc1NC(=O)c1ccc(C(C)(C)C)cc1 | -3.92% |
| COc1ccc(-c2ccc3c(n2)sc2c(O)cc(O)nc23)cc1OC | 25.7% |
| COc1ccc(NC(=O)C(c2ccccc2)c2ccccc2)cc1OC | -2.78% |
| Cc1ccccc1OCCn1c(SCC(=O)O)nc2ccccc21 | 3.79% |
| CC(C)CC(C(=O)O)N1Cc2ccc(C(=O)O)cc2C1=O (stereo not drawn) | -0.795% |
| Cc1oc2c(c1C(=O)NC(Cc1ccccc1)C(=O)O)CCCC2 (stereo not drawn) | -2.29% |
| CC1CC(C)(C)NC(=S)N1CC(=O)N1CCN(C(c2ccccc2)c2ccc(Cl)cc2)CC1 (stereo not drawn) | -2.04% |
| CCCC(=O)Nc1ccccc1NC(=O)C(CC)c1ccccc1 (stereo not drawn) | 1.05% |
| CNC(=O)/C(C#N)=C/c1c(Oc2cc(C)ccc2C(C)C)nc2ccccn2c1=O | 17% |
| N#Cc1c(-c2ccco2)cc(-c2ccccc2)nc1N | -0.446% |
| Nc1nonc1-c1ncon1 | 0.0289% |
| Cc1cc(C)c(NS(=O)(=O)c2ccc(NC(=O)CCC(=O)O)cc2)c(C)c1 | -9.82% |
| CCOc1ccc(/C=c2\sc3nc(=O)c(Cc4ccc(C)cc4)nn3c2=O)cc1OCC | -2.29% |
| Oc1cc(CN2CCOCC2)c(O)cc1CN1CCOCC1 | -6.68% |
| COc1cc(C(=O)Nc2nn3c(-c4cccc(C)c4)nnc3s2)cc(OC)c1OC | 1.68% |
| COc1cc(OC)cc(C(=O)NCCc2cccs2)c1 | -7.35% |
| Clc1nc(Nc2ccc(Br)cc2)nc(N2CCOCC2)n1 | 4.65% |
| COc1ccccc1OCCNC(=O)c1cccs1 | 0.0719% |
| Cn1c(=O)c2ncn(CC(=O)Nc3cc(-c4nc5ccccc5s4)ccc3Cl)c2n(C)c1=O | -5.71% |
